Screen size: about 390,000 compounds; about 17,000 (4.4%) were called active. Inconclusive means that the source gave no clear call. Such entries were picked first, then a sample of the others. The call rests on the fitted dose curve; in most records, active means well fitted inhibition curve with a large enough effect; inconclusive means small, poorly fitted or top-dose-only effect; inactive means no such curve, though single readings can be large or run the other way. Where the call is inconclusive, the potency comes from a doubtful curve fit. Some structures have more than one record in an assay (separate samples or runs), and their calls can disagree.
Target: Lysine-specific demethylase 4A (Homo sapiens) (UniProt O75164)
Sequence of UniProt O75164 (O75164 whole entry, looked up, the tested form may be a part): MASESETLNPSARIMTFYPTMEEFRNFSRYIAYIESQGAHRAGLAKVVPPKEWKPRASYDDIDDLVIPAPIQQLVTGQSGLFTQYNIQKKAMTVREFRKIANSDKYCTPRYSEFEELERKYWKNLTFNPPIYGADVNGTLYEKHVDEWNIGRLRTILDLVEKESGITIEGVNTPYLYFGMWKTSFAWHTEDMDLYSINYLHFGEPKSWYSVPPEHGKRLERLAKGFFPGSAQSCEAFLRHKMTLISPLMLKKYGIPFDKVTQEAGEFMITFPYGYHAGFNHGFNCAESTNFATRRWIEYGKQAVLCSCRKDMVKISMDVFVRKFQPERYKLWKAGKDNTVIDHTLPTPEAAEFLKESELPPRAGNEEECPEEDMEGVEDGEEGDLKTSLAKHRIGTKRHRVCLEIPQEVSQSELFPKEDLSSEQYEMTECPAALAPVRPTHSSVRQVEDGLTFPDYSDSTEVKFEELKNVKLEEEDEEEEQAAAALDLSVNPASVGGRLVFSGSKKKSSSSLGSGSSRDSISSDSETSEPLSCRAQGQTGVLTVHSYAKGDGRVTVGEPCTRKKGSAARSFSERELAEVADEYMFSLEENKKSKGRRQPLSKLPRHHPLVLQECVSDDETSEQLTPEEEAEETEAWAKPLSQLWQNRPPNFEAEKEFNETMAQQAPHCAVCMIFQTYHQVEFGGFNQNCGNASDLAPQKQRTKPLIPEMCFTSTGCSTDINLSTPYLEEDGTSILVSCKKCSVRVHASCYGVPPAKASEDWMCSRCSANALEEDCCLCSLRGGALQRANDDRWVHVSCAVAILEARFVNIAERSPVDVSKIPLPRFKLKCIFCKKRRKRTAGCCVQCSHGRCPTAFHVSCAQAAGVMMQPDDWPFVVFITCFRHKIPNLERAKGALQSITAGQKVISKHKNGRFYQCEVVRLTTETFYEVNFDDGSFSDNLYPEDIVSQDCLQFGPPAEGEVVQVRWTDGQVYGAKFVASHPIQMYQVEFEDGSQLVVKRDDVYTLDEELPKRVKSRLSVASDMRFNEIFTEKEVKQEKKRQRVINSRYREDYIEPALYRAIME
Assay: qHTS Assay for Inhibitors of JMJD2A-Tudor Domain; further: nearly all actives have a fitted effect of over 50% in size
Conditions: AlphaScreen JMJD2A-Tudor / H3K4me3 peptide binding; activity change, negative = inhibition: at 114 µM (top of the series)
On the % scale 0 is the no-effect control and ±100 the full control effect; potency means the concentration at half of the fitted maximal effect; tags describe the fitted curve by direction and shape.

| Structure (SMILES) | Potency | activity change, negative = inhibition |
| --- | --- | --- |
| c1ccc(OCCN2CCOCC2)cc1 | active: 20 µM |  |
| CC1CCc2c(sc3nnn(CCCCOc4ccc(Cl)cc4)c(=O)c23)C1 (configuration not stated) | inconclusive: 89.1 µM [inhibitor, single point] |  |
| Cc1ccc(NC(=O)Cn2c(=S)[nH]c3ccccc32)cc1 |  | inactive: -2.41% |
| O=C(/C=C/c1ccco1)c1cccnc1 | inconclusive: 56.2 µM [inhibitor, partial curve, poor fit] |  |
| O=C(C1CCCN(Cc2ccc3c(c2)OCO3)C1)N1CCCC1 (configuration not stated) | active: 39.8 µM |  |
| CCOC(=O)c1c(NC(=O)c2cc(OCC)c(OCC)c(OCC)c2)sc2c1CCCCC2 |  | inactive: 19% |
| O=C(N/N=C\c1ccc([N+](=O)[O-])s1)C1COc2ccccc2O1 (configuration not stated) | inconclusive: 63.1 µM [inhibitor, single point] |  |
| O=C(Nc1ccccc1)N(Cc1c[nH]c2ccccc12)C1CCCCCC1 | inconclusive: 56.2 µM [inhibitor, partial curve, poor fit] |  |
| Cc1nnc(SCC(=O)Nc2nccs2)[nH]c1=O |  | inactive: -15.8% [at 11.4 µM] |
| COc1ccc(NC(=O)COC(=O)C2CCN(C(=O)c3ccc(Cl)cc3)CC2)c([N+](=O)[O-])c1 | inconclusive: 100 µM [inhibitor, partial curve] |  |
| Cc1ccc(S(=O)(=O)N2CCN(C3CCN(Cc4ccccc4)CC3)CC2)cc1 |  | inactive: 1.66% |
| COc1ccc(/C=C/C2=CCN(Cc3ccc(OC)cc3)CC2)cc1 |  | inactive: -11.2% |
| O=C(Cc1cn2ccsc2n1)Nc1cccc2cnccc12 | inconclusive: 70.8 µM [inhibitor, single point] |  |
| Nc1nn(-c2ccccc2)c2ccc([N+](=O)[O-])cc12 | inconclusive: 89.1 µM [inhibitor, partial curve] |  |
| O=C(/C=C/c1ccco1)Nc1cccc(NC(=O)/C=C/c2ccco2)n1 | inconclusive: 25.1 µM [inhibitor, full curve, poor fit] |  |
| CC(C)(C)c1nnc(NC(=O)C2c3ccccc3Oc3ccccc32)s1 | inconclusive: 50.1 µM [inhibitor, partial curve] |  |
| Cc1nc2ccccc2n1CC(=O)c1ccc(O)c(O)c1 | inconclusive: 89.1 µM [inhibitor, single point] |  |
| CCOC(=O)C1=C(c2ccccc2)N=c2s/c(=C\c3ccc(O)cc3)c(=O)n2C1c1cccs1 (configuration not stated) | inconclusive: 39.8 µM [inhibitor, partial curve] |  |
| Cc1cccc(NC(=O)CN2C(=O)N/C(=C/c3ccc(C)o3)C2=O)c1 | active: 79.4 µM |  |
| CNC(=S)N1N=C(c2ccc(Br)cc2)CC1c1ccc(Br)cc1 (configuration not stated) |  | inactive: -27% |
| C[C@]12c3[nH]c4ccc(Cl)cc4c3CCN1C(=O)[C@@H](CC(=O)NCc1cccc(C(F)(F)F)c1)C[C@@H]2C(=O)N1CCOCC1 | inconclusive: 35.5 µM [inhibitor, partial curve] |  |
| O=C(COC(=O)c1ccc2c(c1Cl)C(=O)c1ccccc1C2=O)NC1CCCCC1 | inconclusive: 70.8 µM [inhibitor, single point] |  |
| Cc1sc2c(c1C)c(=O)n(-c1ccc(Cl)cc1)c(=O)n2Cc1cc(=O)n2cc(Br)ccc2n1 |  | inactive: -9.21% |
| COc1ccc(NC(=O)CSc2oc(-c3ccc(F)cc3)nc2S(=O)(=O)c2ccc(C)cc2)c(OC)c1 | inconclusive: 56.2 µM [inhibitor, partial curve] |  |
| O=C(Cc1ccccc1)NNc1ccc2ccccc2c1 |  | inactive: -16.3% |
| N#CC1=C(N)SC(N)=C(C#N)C1c1c(Cl)cccc1Cl | inconclusive: 79.4 µM [inhibitor, partial curve] |  |

| Structure (SMILES) | Potency | activity change, negative = inhibition |
| --- | --- | --- |
| O=C(O)c1cnc(-c2ccccc2)nc1Sc1ccccc1 |  | inactive: -1.53% [at 57.1 µM] |
| CCOc1cccc(C2C=C(c3ccc4c(c3)OCO4)NC(c3cccc(Br)c3)N2)c1O (configuration not stated) |  | inactive: 1.54% [at 57.1 µM] |
| Cc1ccc(S(=O)(=O)NCc2ccccn2)cc1C |  | inactive: -4.76% |
| COc1cc(OC)c2c(-c3cccc(-c4ccc(N(C)C)cc4)c3)cc(=O)oc2c1 | active: 10 µM |  |
| COc1cc(Cl)c(C)cc1NC(=O)CSc1nc2c(c(=O)[nH]1)CCC2 |  | inactive: -14.2% |
| Cc1ccccc1Nc1cc(C)c2c(O)cccc2n1 | inconclusive: 31.6 µM [inhibitor, partial curve] |  |
| CC1CCCC(NC(=O)CCS(=O)(=O)c2cc3c(cc2Cl)NC(=O)CO3)C1C (configuration not stated) | inconclusive: 22.4 µM [inhibitor, partial curve] |  |
| Cc1ccccc1-n1nc(C)c2c1N=C1C(Cl)=CC(Cl)=CN1C2c1ccc(C(=O)O)cc1 (configuration not stated) | inconclusive: 50.1 µM [inhibitor, partial curve] |  |
| CCc1ccccc1NC(=O)Cn1c(=O)n(CCCCCC(=O)NCc2ccc(C)cc2)c(=O)c2sccc21 |  | inactive: -10.2% |
| O=C(NNS(=O)(=O)c1ccccc1)c1ccncc1 | active: 10 µM |  |
| CCC(C)NC(=O)C1CCC(CNS(=O)(=O)c2ccc3c(c2)CC(C)N3C(C)=O)CC1 (configuration not stated) | inconclusive: 14.1 µM [inhibitor, full curve, poor fit] |  |
| Cc1ccc(-c2csc(NC(=O)C3CSC4(C)CCC(=O)N34)n2)cc1 (configuration not stated) |  | inactive: -2.14% |
| Cc1cc(C)c(NC(=O)C2CC(=O)N(c3ccc4c(c3)OCCO4)C2)c(C)c1 (configuration not stated) | inconclusive: 100 µM [inhibitor, partial curve] |  |
| COc1ccccc1NC(=O)CSc1nnc(NC(=O)NC2CCCCC2)s1 |  | inactive: -17.2% |
| Cn1nc(-c2ccccc2)c2nc3ccccc3nc21 |  | inactive: 56% |
| O=[N+]([O-])c1ccc2[nH]nc(-c3ccccc3)c2c1 |  | inactive: 11.8% |
| CCc1ccc(NCc2cc3cc4c(cc3n(CC(=O)Nc3ccccc3OC)c2=O)OCCO4)cc1 | inconclusive: 5.62 µM [inhibitor, full curve] |  |
| O=C(CSc1n[nH]c(-c2ccccc2)n1)c1ccccc1 | inconclusive: 22.4 µM [inhibitor, partial curve, poor fit] |  |
| COc1ccccc1/C=C/C=N/N1CCN(Cc2ccc(Cl)cc2)CC1 | active: 44.7 µM |  |
| O=C(O)CCCC(=O)Nc1ccccc1C(=O)O | inconclusive: 39.8 µM [inhibitor, partial curve, poor fit] |  |
| O=C(c1ccccc1)c1ccc(O)cc1O |  | inactive: -16.5% |
| COc1ccccc1C(=O)NCCC(=O)N1CCN(c2ccccc2Cl)CC1 | inconclusive: 89.1 µM [inhibitor, single point] |  |
| O=C(O)CCCCCN1C(=O)C(O)=C(C(=O)/C=C/c2ccccc2)C1c1ccc2c(c1)OCO2 (configuration not stated) | active: 22.4 µM |  |
| CCOc1ccccc1NC(=O)N1c2ccccc2Sc2ccccc21 |  | inactive: 2.42% |
| O=C(O)C(c1ccccc1)N1C(=O)/C(=C\c2ccc(-c3cccc(Cl)c3)o2)SC1=S (configuration not stated) | active: 20 µM |  |
| CCn1c(CNC(C)=O)nnc1SCC(=O)c1ccc(Br)cc1 | active: 56.2 µM |  |

| Structure (SMILES) | Potency | activity change, negative = inhibition |
| --- | --- | --- |
| Cc1ccc(NC(=O)Cn2nnc3sc4c(c3c2=O)CCC(C)C4)cc1 (configuration not stated) |  | inactive: -12.8% |
| COc1ccc(Cn2c(CCC(=O)Nc3ccc(C)cc3)nc3cccnc32)cc1 | active: 79.4 µM |  |
| CC1(OC(=O)CCc2ccccc2)C(=O)C=C2C=C(c3ccc(C#N)cc3)N(Cc3ccco3)C=C2C1=O (configuration not stated) | inconclusive: 63.1 µM [inhibitor, partial curve, poor fit] |  |
| CCCCNC(=S)NCCN1CCCCC1 | active: 1.58 µM |  |
| Cc1occc1-c1n[nH]c(=S)n1CC(C)C | active: 5.01 µM |  |
| CCn1ccc2cc(S(=O)(=O)N3CCC(C(=O)NCc4cccc(Cl)c4)CC3)ccc21 |  | inactive: -3.51% |
| CC(C)CNC(=O)C(=O)Nc1c2c(nn1-c1ccccc1)CS(=O)(=O)C2 | inconclusive: 25.1 µM [inhibitor, full curve, poor fit] |  |
| Fc1cccc(Cl)c1CNn1cn[nH]c1=S | active: 50.1 µM |  |
| CCCCN(CC)Cc1ccc(CNC(=S)Nc2ccccc2F)o1 |  | inactive: -13% |
| Cc1cccc(OCCCN2CCCCCC2)c1 | active: 7.94 µM |  |
| CCCN(CCC)CC(O)COc1ccc2c(c1)OCO2 (configuration not stated) |  | inactive: 9.93% |
| CSc1cccc(NC(=O)Cn2c(=O)n(Cc3ccccc3)c(=O)c3sc4ccccc4c32)c1 |  | inactive: 3.64% |
| CCOc1ccc(CNc2ccc3c(c2)ncn3C(C)(C)C)cc1 | inconclusive: 50.1 µM [inhibitor, partial curve] |  |
| Cc1ccc(NC(=S)N=Nc2c(O)n(C)c3ccc(S(=O)(=O)N4CCOCC4)cc23)cc1 | inconclusive: 56.2 µM [inhibitor, partial curve] |  |
| Cc1ccc(N(CC(=O)NC(C)C)C(=O)CCC(=O)Nc2nccs2)c(C)c1 |  | inactive: -7.36% |
| O=P(O)(O)c1ccccc1OCCOCCOc1ccccc1P(=O)(O)O | inconclusive: 89.1 µM [inhibitor, partial curve] |  |
| CC(=O)Oc1ccc(N2C(=O)C3C4C=CC(C5CC45)C3C2=O)cc1[N+](=O)[O-] (configuration not stated) |  | inactive: -17.9% |
| O=C(NCCN1C(=O)S/C(=C\c2ccc(Cl)cc2Cl)C1=O)C1=COCCO1 |  | inactive: -11% |
| Clc1ccc(Nc2ccc(-n3ccnc3)nn2)cc1Cl | inconclusive: 79.4 µM [inhibitor, single point] |  |
| Fc1ccccc1NC(=S)NCc1ccc2c(c1)OCO2 |  | inactive: -6.38% [at 57.1 µM] |
| CCc1ccc(NC(=S)NC2CC3CCCC(C2)N3Cc2cccs2)cc1 (configuration not stated) | inconclusive: 39.8 µM [inhibitor, partial curve] |  |
| O=C(c1ccc2ncsc2c1)N1CCCCC1 |  | inactive: -11.4% |
| O=C1CC(=O)N(CCc2ccccc2)C(=O)N1CCc1ccccc1 | inconclusive: 79.4 µM [inhibitor, partial curve] |  |
| COc1ccc(S(=O)(=O)N2CCN(Cc3ccc4c(c3)OCO4)CC2)cc1C | inconclusive: 79.4 µM [inhibitor, partial curve] |  |
| C[C@@H](NCCCn1cnc2c(OCc3ccccc3)ncnc21)c1cccc2ccccc12 |  | inactive: -24.7% |

— PubChem BioAssay AID504339 (National Center for Advancing Translational Sciences (NCATS), 2011)
